From PubChem BioAssay AID488969 (Vanderbilt High Throughput Screening Facility, 2010)
The full ranking holds about 110,000 compounds; the median of “z-score” is about -0.1, and the highest 2% start at about 2. The list shows a part of the results. The source made the active and inactive calls.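 How the source made its calls: active means z-score in the third read window above 3 or below -3; inactive means the rest.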

The compounds below were run against Metabotropic glutamate receptor 8 (Rattus norvegicus) (UniProt P70579) (assay: rat mGluR8 modulators via GIRK flux, primary screen, cell-based, thallium flux, HTS (AID 488969)). Details: HEK293 rat mGluR8, GIRK (G protein-gated inwardly rectifying potassium channel) thallium flux, FluoZin2; at 10 µM; stronger effect = higher value; submaximal glutamate (EC20) added with thallium.
Sequence of UniProt P70579 (P70579 whole entry, looked up): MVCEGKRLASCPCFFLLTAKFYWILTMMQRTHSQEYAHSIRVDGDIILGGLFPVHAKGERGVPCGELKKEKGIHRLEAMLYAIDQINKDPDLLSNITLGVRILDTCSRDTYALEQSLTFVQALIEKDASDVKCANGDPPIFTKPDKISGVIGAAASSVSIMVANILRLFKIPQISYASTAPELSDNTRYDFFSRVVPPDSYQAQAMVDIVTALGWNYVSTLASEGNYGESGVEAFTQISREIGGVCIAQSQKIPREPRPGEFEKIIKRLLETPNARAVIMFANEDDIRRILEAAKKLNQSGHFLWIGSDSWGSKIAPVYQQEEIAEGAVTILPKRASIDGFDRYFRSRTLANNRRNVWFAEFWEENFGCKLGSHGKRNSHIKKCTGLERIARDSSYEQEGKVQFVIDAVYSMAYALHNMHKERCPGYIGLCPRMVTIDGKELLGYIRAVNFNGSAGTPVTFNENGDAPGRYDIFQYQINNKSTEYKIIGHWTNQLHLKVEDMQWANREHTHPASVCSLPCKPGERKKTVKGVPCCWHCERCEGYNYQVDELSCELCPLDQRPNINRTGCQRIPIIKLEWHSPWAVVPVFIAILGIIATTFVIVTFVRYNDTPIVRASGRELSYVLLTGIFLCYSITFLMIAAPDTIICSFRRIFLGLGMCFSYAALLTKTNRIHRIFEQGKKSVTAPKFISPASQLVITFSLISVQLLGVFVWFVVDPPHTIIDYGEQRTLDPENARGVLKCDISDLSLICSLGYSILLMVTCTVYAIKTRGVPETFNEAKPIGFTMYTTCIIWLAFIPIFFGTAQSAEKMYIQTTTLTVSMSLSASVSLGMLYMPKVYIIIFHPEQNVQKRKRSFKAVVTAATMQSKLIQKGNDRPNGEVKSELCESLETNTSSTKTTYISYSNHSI
`Cc1cc(C(=O)NCCCn2ccnc2)sc1-c1ccccc1` gave a z-score of -0.0356. For `O=c1cc(NS(=O)(=O)c2ccccc2)nc(SCc2ccc(Cl)cc2)[nH]1`, the z-score was 0.485. In the case of `CN(C)c1ccc(/C=C/C=C2/SC(=S)N(c3ccccc3)C2=O)cc1`, the z-score is reported as 0.46. In the case of `Cc1ccc(OC(=O)CCC(=O)OCCCC(F)(F)C(F)(F)F)cc1`, the z-score is reported as -0.304. Compound `O=C(NC1CCCC1)C(c1c[nH]c2ccccc12)N(C(=O)Cn1nnc(-c2ccc(Cl)cc2)n1)c1ccccc1` (stereo unspecified) has a z-score of -0.0186. `CC(C)C[C@H](NC(=O)OC(C)(C)C)C(=O)N/N=C/C1=Cc2ccccc2OC1C` (stereo partly specified) showed a z-score of -0.0272. `CN1C(=O)C(O)(C2COC(C)(C)CC2=O)c2cc(Br)ccc21` (stereo unspecified) was tested, and the z-score was 0.58. `O=C(N/C(=C/c1cccc([N+](=O)[O-])c1)C(=O)N1CCCCC1)c1cccs1` gave a z-score of -0.275. With `CCc1cccc(C)c1NC(=O)c1ccoc1C` the z-score was 0.147. `O=C(Cn1[nH]c(=O)c2ccccc2c1=O)OCC(=O)N1CCCc2ccccc21` showed a z-score of -0.259. Work on `Cc1cccc(-n2c(-c3csc(C(C)C)c3)n[nH]c2=S)c1` yielded a z-score of 2.87. With `Cc1ccc(NC(=O)CSc2nnc(-c3cccnc3)n2-c2ccc(C)cc2)cc1` the z-score was -0.339. For `COc1cc(C(C(=O)NC2CCCCC2)N(C(=O)Cc2c[nH]c3ccccc23)c2ccccc2C)cc(OC)c1OC` (stereo unspecified), the z-score was -0.0948. In the case of `O=C(COc1ccccc1)NC(NC(=S)Nc1ccccc1C(=O)O)C(Cl)(Cl)Cl` (stereo unspecified), the z-score is reported as -0.0437. In the case of `c1cncc(-c2nc3ccccn3c2Nc2ccc3c(c2)OCCO3)c1`, the z-score is reported as -0.0135. Compound `N/C(=N\OC(=O)C12CC3CC(CC(C3)C1)C2)c1ccccn1` has a z-score of 0.0978. In the case of `CCOc1cccc(CNc2ccc(O)cc2)c1OCc1ccc(Cl)cc1`, the z-score is reported as 0.00371. For `CCOC(=O)Cc1c(C)c2c(C)nn(-c3ccccc3)c2oc1=O`, the z-score was -0.884. Work on `O=C(c1cc2n(n1)C(C(F)(F)F)CC(c1ccco1)N2)N1CCc2ccccc2C1` (stereo unspecified) yielded a z-score of -0.156. `CCOC(=O)c1c(C)[nH]c(C(=O)COC(=O)C(C)N2C(=O)C3CCCCC3C2=O)c1C` (stereo unspecified) gave a z-score of -0.178. Compound `Cn1c(=O)n(CC(=O)N2CCOCC2)c2ccccc21` has a z-score of 1.21. Work on `Clc1cccc(Cl)c1Cn1cc(Br)cn1` yielded a z-score of 0.143. Compound `CCNc1nc(N)c(C(=O)c2ccc(Cl)s2)s1` has a z-score of 1.03. `CC1=C(C(N)=O)C(c2cccs2)n2nc(-c3cccc(Cl)c3)nc2N1` (stereo unspecified) gave a z-score of 2.14. With `CCC(=O)NC(=S)Nc1ccc(NC(=O)c2ccc([N+](=O)[O-])cc2)cc1` the z-score was 0.824. `NC(=O)C[C@@H]1N[C@]2(C(=O)Nc3ccccc32)[C@@H]2C(=O)N(C3CCCCC3)C(=O)[C@H]12` showed a z-score of -0.23. For `CCOc1ccc(Nc2oc(Cc3ccccc3)nc2C#N)cc1`, the z-score was -1.36. `CCOC(=O)N/N=C/c1cn(CCCOc2ccc(C)cc2)c2ccccc12` showed a z-score of 0.276. `CCCCc1ccc(NC(=O)c2c(C)noc2C)cc1` showed a z-score of -0.0917. `c1coc(C2Nc3cccc4cccc(c34)N2)c1` gave a z-score of 0.186. `COc1cc(C(=O)N2CCN(C/C=C/c3ccccc3)CC2)cc(OC)c1C` showed a z-score of -0.426. In the case of `CCC(C)NC(=O)c1ccccc1NC(=O)CN(c1ccc(OC)cc1)S(C)(=O)=O` (stereo unspecified), the z-score is reported as -0.236. In the case of `O=C1c2ccccc2C(Nc2ccc(S(=O)(=O)N3CCOCC3)cc2)N1c1ccccn1` (stereo unspecified), the z-score is reported as -0.244. `Cc1ccc(Cl)c(OCC(=O)NCc2ccco2)c1` was tested, and the z-score was -0.0225. Compound `CCCC(=O)Nc1cc(-c2nnc(OC)c3ccccc23)ccc1N1CCCCC1` has a z-score of -0.148. `O=C(CN1C(=O)c2ccccc2C1=O)c1ccccc1` was tested, and the z-score was 0.035. Compound `Cc1cccc(SCc2noc(C(=O)NCC3CCCO3)c2C(=O)O)c1` (stereo unspecified) has a z-score of -1.59. Compound `CSc1nc2sc(-c3ccccc3)cc2c(=O)n1N` has a z-score of 0.734. In the case of `C=CCNC(=O)CC(=O)N/N=C/c1cccc(C)c1`, the z-score is reported as -0.0638. Compound `COc1ccc(C)cc1S(=O)(=O)Nc1cccc(SC)c1` has a z-score of 0.29. `COc1ccccc1CN(C)CC(=O)Nc1ccc(Cl)cc1C(F)(F)F` showed a z-score of -0.124. In the case of `Cc1cc(C(=O)N2CCN(c3ccc([N+](=O)[O-])cc3)CC2)no1`, the z-score is reported as 0.0375. With `CCOC(=O)c1c(C)oc2c(CC(=O)c3ccccc3)c(Cl)c(O)c(O)c12` the z-score was -0.106. For `Cc1cnc(NC(=O)c2ccc3c(c2)C(=O)N(Cc2ccco2)C3=O)s1`, the z-score was -0.373. `CCc1nn(-c2cc(Cl)ccc2OC)c2c1C(=O)CCC2` showed a z-score of -0.275. `CC(C)(C)OC(=O)NCCc1nnc(SCc2ccc(Cl)cc2Cl)o1` was tested, and the z-score was -0.311. For `CCN(c1ccccc1)S(=O)(=O)c1cc(NC(=O)Nc2ccccc2C#N)ccc1Cl`, the z-score was -0.533. In the case of `Cc1cc(NC(=O)CCCSc2nc(-c3ccco3)cc(C(F)(F)F)n2)n(-c2ccccc2)n1`, the z-score is reported as -0.49. Compound `CSCCC(NC(=O)C12CC3CC(CC(C3)C1)C2)C(=O)OCC(=O)c1ccc(Cl)cc1` (stereo unspecified) has a z-score of -0.227. With `O=C(CCC1COc2ccccc2O1)Nc1cccnc1` (stereo unspecified) the z-score was -0.0766. `O=C(/C=C/NNC(=O)c1cccc(Br)c1)c1ccccc1` was tested, and the z-score was 0.542. `CC(C)Oc1ccc(C(=O)CCN2CCCCC2)cc1` was tested, and the z-score was 1.59. In the case of `Cc1nn(Cc2ccc(Cl)cc2Cl)c(C)c1NC(=O)Cn1nc([N+](=O)[O-])c(Cl)c1C`, the z-score is reported as -0.175. With `O=C(Cc1ccccc1)NC(=S)Nc1cccc(C(F)(F)F)c1` the z-score was active: 4.01. With `Cn1nc(C(=O)Nc2sccc2C(N)=O)ccc1=O` the z-score was 0.165. `O=C(NCc1ccccc1)c1cccnc1N1CCOCC1` gave a z-score of -0.469. For `Nc1ccc(C(=O)c2ccccc2C(=O)O)cc1Cl`, the z-score was 0.363. With `O=C(OCC(=O)N1CCN(C(=O)c2ccco2)CC1)c1ccccc1C(=O)c1ccc(Cl)cc1` the z-score was 0.0675. Compound `O=C(CSc1nnnn1-c1cccc(F)c1)Nc1nc2ccccc2s1` has a z-score of -0.0501. For `CCCOC1CCCN(C(=O)c2cc(Cl)c(Cl)cc2C(=O)O)C1` (stereo unspecified), the z-score was -1.42. In the case of `CCCCc1c(O)nc2ccccn2c1=O`, the z-score is reported as 0.0654. Compound `COc1cccc2sc(N(CCCN(C)C)C(=O)c3sc4ccccc4c3Cl)nc12` has a z-score of -0.927. `O=C(Nc1ccc(F)cc1)c1ccccc1` gave a z-score of -0.000317. Work on `Cc1ccc(C(C[N+](=O)[O-])c2c(C)cc3ccccn23)cc1` (stereo unspecified) yielded a z-score of 0.00538. For `N#Cc1cc2cc3c(cc2nc1N1CCCCC1)OCCO3`, the z-score was 0.0458. For `COC(=O)c1cc(OC)c(OC)cc1NC(=O)c1ccc(Br)o1`, the z-score was -0.712. `Cc1nc(C)c(CCNC(=O)c2ccccc2Br)s1` was tested, and the z-score was 0.772. With `CN1CCN(C(=O)c2c(O)c3cccc4c3n(c2=O)CCC4)CC1` the z-score was 0.413. `Cc1ccc(NC(=O)NCc2ccc3c(c2)OCO3)cc1` showed a z-score of -0.338. In the case of `O=C(CSC1CC(=O)N(CCc2ccccc2)C1=O)Nc1ccc(Br)cc1` (stereo unspecified), the z-score is reported as -0.313. Work on `COCCNC(=O)CCCCCN1C(=O)CCC1=O` yielded a z-score of 0.449. With `O=C(NC1CC2CCCC(C1)N2S(=O)(=O)c1ccccc1)c1ccco1` (stereo unspecified) the z-score was -0.229. In the case of `COc1ccc(CC(=O)N2CCOCC2)cc1OC`, the z-score is reported as -0.138. `Cc1ccc(C(CC(N)=O)c2ccco2)cc1` (stereo unspecified) was tested, and the z-score was -0.269. Compound `CCn1c(Cc2ccccc2)nnc1SCC(=O)c1cccc([N+](=O)[O-])c1` has a z-score of -2.15. In the case of `Cc1ccc(C(=O)OCC(=O)NCc2ccco2)cc1`, the z-score is reported as -0.195. Compound `COCC(=O)Nc1cc(C(=O)OC)cc(C(=O)OC)c1` has a z-score of -1.3. `O=C(CSc1nc(-c2ccco2)cc(C(F)(F)F)n1)N1CCN(c2ccc(Cl)cc2)CC1` gave a z-score of -0.455. In the case of `Cn1c(=O)n(C)c2cc(S(=O)(=O)O)ccc21`, the z-score is reported as -0.339. `CN1CCN(CC(=O)Nc2nc(-c3ccccc3)cs2)CC1` was tested, and the z-score was 1.04. Compound `COC(=O)CCn1nnc(-c2cccs2)n1` has a z-score of 0.584. `CCOc1ccccc1N(CC(=O)Nc1ccc(S(=O)(=O)N2CCOCC2)cc1)S(=O)(=O)c1ccc(Cl)cc1` showed a z-score of -0.0409. In the case of `COC(=O)Nc1ccc(S(=O)(=O)Nc2ccc(O)cc2)cc1`, the z-score is reported as 0.579. In the case of `CCOC(=O)C1CCCN(S(=O)(=O)c2ccc(Br)s2)C1` (stereo unspecified), the z-score is reported as -0.167. `CCN(CC)S(=O)(=O)c1cccc(C(=O)Oc2cccnc2)c1` showed a z-score of 0.621. In the case of `CCCCCCOC(=O)c1ccc(NC(=O)c2cc(OC)c(OC)c(OC)c2Br)cc1`, the z-score is reported as -0.208. `CN1C(=O)CC(N2CCN(CC(N)=O)CC2)C1=O` (stereo unspecified) gave a z-score of 0.0718. `CC(=O)N1CCN(Cc2nc3cc(NC(=O)c4ccc(Cl)cc4)ccc3n2C)CC1` was tested, and the z-score was -1.71. For `CCOC(=O)CCc1nc2ccccc2[nH]c1=O`, the z-score was -0.401. Work on `COc1cccc(OCCOc2ccccc2[N+](=O)[O-])c1` yielded a z-score of -0.0515. In the case of `CC(C)CC(c1nnnn1Cc1cccs1)N1CCN(c2nc3ccccc3s2)CC1` (stereo unspecified), the z-score is reported as 0.328. `COc1ccc(NC(=O)COC(=O)CCCc2c[nH]c3ccccc23)cc1` gave a z-score of -0.238. Work on `CN(C)c1cccc2c(C=C(C#N)C#N)ccc(N(C)C)c12` yielded a z-score of -0.0912. In the case of `CCc1c(O)nc(SCC(=O)Nc2ccccc2)n(C(C)CC)c1=O` (stereo unspecified), the z-score is reported as -0.191. In the case of `O=C(Nc1ccccc1)O/N=C1\CCCCC1c1ccc([N+](=O)[O-])cc1[N+](=O)[O-]` (stereo unspecified), the z-score is reported as -0.435. In the case of `COC(=O)C(O)(CC(=O)Nc1ccc(OC)cc1)C(F)(F)F` (stereo unspecified), the z-score is reported as -0.0368. With `COc1ccc(/C(N)=N/O)cc1O` the z-score was -0.138. `CCCN1CCC(NC(=O)Nc2ccc(OC)c(OC)c2)CC1` showed a z-score of 0.00828. `O=C(CNc1ccccc1)N/N=C/c1ccc2c(c1)OCO2` was tested, and the z-score was -0.247. Work on `O=C(NNC(=O)c1cc2c(s1)CCCC2)c1ccccc1` yielded a z-score of 0.395. Work on `COc1ccc2c(c1)C(C)=CC(C)(C)N2C(=O)Nc1ccccc1` yielded a z-score of -0.44. With `Cc1[nH]n(-c2ncc(-c3ccccc3)s2)c(=O)c1C(c1ccc(Br)cc1)C(C#N)C#N` (stereo unspecified) the z-score was 0.397. Work on `COc1ccc(CNC(=O)C2CCCN(S(=O)(=O)c3c(C)n[nH]c3C)C2)cc1` (stereo unspecified) yielded a z-score of -0.287. `CCCOc1ccccc1Nc1nnc(C)c(=O)[nH]1` gave a z-score of 0.409. In the case of `COc1ccc(-c2cc(C(=O)Nc3cc(OC)c(OC)c(OC)c3)no2)cc1OC`, the z-score is reported as 0.558. Work on `CO/N=C(/CS(=O)(=O)c1ccc(C)cc1)c1ccc(OC)cc1` yielded a z-score of -0.113. For `Cc1ccc(S(=O)(=O)N2CCCC2C(=O)N(C)Cc2cccs2)cc1` (stereo unspecified), the z-score was 0.127. `CC1=C(C#N)c2nc(N)c(C#N)c(C)c2/C1=C\c1ccc(C)cc1` was tested, and the z-score was -0.932. `CC(NC(=O)CSCc1ccccc1Br)c1ccccc1` (stereo unspecified) gave a z-score of -0.331. For `CC(=O)Nc1ccc(Oc2nc(C)cc(C)n2)cc1`, the z-score was 0.187. `Cc1ccnc(NC(=O)CCC(=O)N(CC(=O)NCC2CCCO2)Cc2ccc(F)cc2)c1` (stereo unspecified) showed a z-score of -0.21.
